Test results reported in PubChem BioAssay (NCATS).
The shares of active, inactive and inconclusive entries below differ from those in the screen. Where a call stands in place of a potency, no number is given. Potencies beside an inconclusive call are fits to weak or partial responses and may not hold up. Active and inactive are the calls of the source. Calls follow the shape of the dose curve; as a rule, active = well fitted inhibition curve with a large enough effect; inconclusive = small, poorly fitted or top-dose-only effect; inactive = no such curve, though single readings can be large or run the other way.

Target: Retinaldehyde dehydrogenase 3 (Homo sapiens) (UniProt P47895)
Assay: qHTS for Inhibitors of the Aldehyde Dehydrogenase Family (ALDH1A3) Primary screen (AID 2061315)
Conditions: ALDH inhibition qHTS; series mostly up to 56 µM
Potency is read from the fitted curve at half-maximal effect; tags tell the direction and shape of the fitted curve.

Row | Compound | Potency
1 | COc1ccc(-c2nc(-c3ccc(C(=O)O)cc3)no2)cc1 | inconclusive: 0.891 µM [inhibitor, full curve, poor fit]
2 | COc1cc(/C=C/C(=O)O[C@@H]2O[C@H](CO)[C@@H](O)[C@H](O)[C@H]2O)ccc1O | inactive
3 | COc1ccc(NC(=O)c2ccc(-c3ccc(-c4nnc(C)o4)cc3C)cc2)cc1N1CCN(C)CC1 | inactive
4 | Cc1cc(CNc2ncnc3ccc(-c4ccc5c(c4)OCO5)cc23)c(C)o1 | inactive
5 | CC(C)CC1NC(=O)C2CC3(O)c4ccccc4NC3N2C1=O (configuration not stated) | inconclusive: 14.1 µM [inhibitor, partial curve, poor fit]
6 | C=C1[C@H]2CCC3[C@]4(C)CCC[C@@](C)(C(=O)O)C4CC[C@]3(C2)[C@H]1OC(C)=O (some centres not stated) | inactive
7 | Cc1ccc(-c2csc3ncnc(Sc4nnnn4C)c23)cc1 | inactive
8 | COC1C(OC(=O)/C=C/C=C/C=C/C=C/C(=O)O)CCC2(CO2)C1C1(C)OC1CC=C(C)C (configuration not stated) | inactive
9 | C[C@H]1[C@H](C)CC[C@]2(C(=O)O)CC[C@]3(C)C(=CCC4[C@@]5(C)C[C@@H](O)[C@H](O)C(C)(C)C5CC[C@]43C)[C@H]12 (some centres not stated) | inactive
10 | NC(=O)[C@H](O[C@@H]1O[C@H](CO)[C@@H](O)[C@H](O)[C@H]1O)c1ccccc1 | inconclusive: 10 µM [inhibitor, partial curve, poor fit]
11 | Oc1cc(Nc2ccc(N3CCCCC3)cc2)cc2cccnc12 | inconclusive: 0.316 µM [inhibitor, full curve, poor fit]
12 | O=S1(=O)N=C(Oc2ccccc2-c2ccccc2)c2ccccc21 | inactive
